# Measured values from paper PMC4336329 (PLoS ONE, 2015).
# Among all 310,000 compounds or so, about 14,000 (4.5%) showed an effect of 50% or more. The effect is printed as a negative number. The list shows a part of the results.
# Target: human ether-à-go-go-related gene (hERG) potassium channel (human, UniProt Q12809)
# Assay: primary screen, population patch clamp on CHO cells stably expressing hERG
# 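Also: peak tail current of the secondary pulse compared with the same well before compound.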
# Chain of human ether-à-go-go-related gene (hERG) potassium channel (Q12809 whole entry, looked up): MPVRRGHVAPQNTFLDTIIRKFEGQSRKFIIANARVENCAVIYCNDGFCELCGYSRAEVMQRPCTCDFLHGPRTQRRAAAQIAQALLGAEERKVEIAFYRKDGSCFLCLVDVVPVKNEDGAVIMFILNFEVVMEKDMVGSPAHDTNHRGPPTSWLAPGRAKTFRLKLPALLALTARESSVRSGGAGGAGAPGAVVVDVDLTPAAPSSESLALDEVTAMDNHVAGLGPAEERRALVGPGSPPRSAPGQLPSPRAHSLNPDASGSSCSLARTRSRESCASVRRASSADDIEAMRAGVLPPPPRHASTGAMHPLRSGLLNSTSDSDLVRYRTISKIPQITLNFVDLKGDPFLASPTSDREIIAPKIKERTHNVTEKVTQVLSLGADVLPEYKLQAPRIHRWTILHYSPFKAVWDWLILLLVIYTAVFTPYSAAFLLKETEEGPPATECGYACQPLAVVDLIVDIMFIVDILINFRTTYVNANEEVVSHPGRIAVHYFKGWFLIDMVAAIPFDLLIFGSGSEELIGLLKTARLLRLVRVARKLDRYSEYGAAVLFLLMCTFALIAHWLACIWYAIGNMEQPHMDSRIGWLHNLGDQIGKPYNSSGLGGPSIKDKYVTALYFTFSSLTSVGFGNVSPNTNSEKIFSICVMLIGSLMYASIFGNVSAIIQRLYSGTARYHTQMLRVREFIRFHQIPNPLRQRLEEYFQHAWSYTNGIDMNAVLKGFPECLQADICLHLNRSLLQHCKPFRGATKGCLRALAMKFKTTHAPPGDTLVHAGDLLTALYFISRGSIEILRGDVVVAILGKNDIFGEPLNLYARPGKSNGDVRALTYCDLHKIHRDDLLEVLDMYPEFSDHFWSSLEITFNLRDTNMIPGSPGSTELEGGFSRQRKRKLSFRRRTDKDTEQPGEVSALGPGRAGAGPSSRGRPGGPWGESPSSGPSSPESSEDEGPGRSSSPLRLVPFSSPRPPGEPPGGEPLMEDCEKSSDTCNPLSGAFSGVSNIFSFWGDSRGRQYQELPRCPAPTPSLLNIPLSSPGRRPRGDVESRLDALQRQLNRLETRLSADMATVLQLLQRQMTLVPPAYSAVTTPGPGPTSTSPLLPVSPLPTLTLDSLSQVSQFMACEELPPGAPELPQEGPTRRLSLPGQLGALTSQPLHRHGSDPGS
row,SMILES,"hERG current change (%, negative = inhibition) at 10uM [%]"
1,Cc1ccc(S(=O)(=O)NCC(C)NS(C)(=O)=O)cc1 (centres unmarked),10.5
2,Cc1ccc(C2(c3ccc(C)cc3)CC2C(=O)Nc2ccc([N+](=O)[O-])cc2O)cc1 (centres unmarked),-2.42
3,CC(=O)Nc1ccc(S(=O)(=O)N2CCNC(=O)CC2)cc1,7.85
4,COc1cccc(-n2c(SCC(=O)Nc3cc(C)on3)nc3c([nH]c4ccccc43)c2=O)c1,-3.95
5,CCOc1ccc(/C=C2/Sc3ccc(C(=O)N4CCN(C(=O)c5ccco5)CC4)cc3N(C)C2=O)cc1OC,-53.9
6,Cc1ccc(C(c2nnnn2CS(=O)(=O)c2ccc(C)cc2)N2CCCC2)cc1 (centres unmarked),18.6
7,Cc1ccc(S(=O)(=O)NCCN2CCOCC2)cc1C,-2.28
8,Cc1ccc2sc(N(CCCN(C)C)C(=O)c3ccc(S(=O)(=O)N(C)C4CCCCC4)cc3)nc2c1C.Cl,-8.13
9,CCCn1c(C(Cc2ccccc2)NC(=O)COC)nc2ccccc21 (centres unmarked),2.2
10,COCC1CCCCN1C(=O)c1cccc(OC2CCN(S(C)(=O)=O)CC2)c1 (centres unmarked),14.7
11,CC12CCC3c4ccc(O)cc4CCC3C1CC(O)C2O (centres unmarked),19.5
12,O=C(c1ccc(Cl)c(Cl)c1)c1cc(-c2ccccn2)c(N2CCOCC2)s1,-29.1
13,Cc1cc(=O)oc2cc(OCC(=O)Nc3ccc(N4CCC(C)CC4)cc3)ccc12,6.53
14,Cl.c1ccc([C@H]2CN3CCSC3=N2)cc1,7.35
15,O=C1N/C(=N/c2ccccn2)SC1Cc1ccccc1 (centres unmarked),-13.7
16,CN1CCN(C(c2cc3cc4c(cc3[nH]c2=O)OCCO4)c2nnnn2C2CCCC2)CC1 (centres unmarked),-9.91
17,CCN(CC)C(=O)c1c(Cl)nc(C)c([N+](=O)[O-])c1C,21.5
18,CC(=O)c1ccc(-c2ccc(C(=O)N(C)Cc3nc4ccccc4c(=O)[nH]3)o2)cc1,-20.7
19,Cc1ccc(Nc2c(-c3ccccn3)nc3ccc(C)cn23)cc1,-18.6
20,NC(=O)C1=NOC(CNc2ncc(C(F)(F)F)cc2Cl)C1 (centres unmarked),0.535
21,NC(=O)c1oc2ccccc2c1NC(=O)c1nc2ccccc2s1,6.28
22,COc1cccc(N2CCN(Cc3nc4scc(-c5ccccc5)c4c(=O)[nH]3)CC2)c1,-1.47

row,SMILES,"hERG current change (%, negative = inhibition) at 10uM [%]"
1,O=c1cc(-c2ccccc2)nc2cc(-c3ccco3)[nH]n12,12.8
2,CCOC(=O)[C@H]1[C@H]2COc3ccc(Br)cc3[C@@H]2N2C(=O)c3ccc(Cl)cc3NC(=O)[C@@]12C,-1.19
3,COC(=O)C[C@](O)(CCCC(C)(C)O)C(=O)O[C@@H]1C(OC)=C[C@]23CCCN2CCc2cc4c(cc2[C@H]13)OCO4,10.4
4,O=C(NCc1ccccc1)Nc1cccn(Cc2ccccc2)c1=O,10.4
5,COC(=O)C1CCCCN1C(=O)c1cc(COc2cccc3cnccc23)on1 (centres unmarked),-2.95
6,COc1cc(CN2CCCC(C)C2)cc([N+](=O)[O-])c1O (centres unmarked),13.4
7,O=C(Nc1ccc2ccccc2n1)C1CCCCC1,-6.07
8,CCC(OC(=O)c1ccco1)C(=O)NCc1ccc2c(c1)OCO2 (centres unmarked),-5.67
9,COc1ccccc1-c1c(C)oc2c(CN3CCN(C)CC3)c(O)ccc2c1=O,21.4
10,Cn1c(=O)c2c(SCC(=O)N3CCOCC3)nc(-c3ccccc3F)nc2n(C)c1=O,-8.27
11,O=C(C1=C[C@H](C2CCCCC2)C[C@H](OCCCCO)O1)N1CCOCC1,9.68
12,COc1ccccc1CNC(=O)[C@@H](NC(=O)C1CCN(C(=O)[C@@H]2CCCN2)CC1)C(C)C,2.92
13,Br.COc1ccc(C2=CSC3=NCCN23)cc1F,-13.9
14,CN(c1ccccc1C(=O)N1CCN(c2ccccc2)CC1)S(C)(=O)=O,-16.3
15,CCOc1ccccc1C(=O)OCC(=O)Nc1ccc(OC(F)F)cc1,-54
16,O=S(=O)(c1ccc(Cl)nc1)N1CCN(c2ncccn2)CC1,-0.184
17,CC[n+]1c(/C=C/Nc2ccccc2)sc2ccccc21.[I-],-72.2
18,Cc1cccc(N2CCN(c3ccc(N4C(=O)CCCC4=O)cc3[N+](=O)[O-])CC2)c1C,-17.6
19,Nc1ccc(C(=O)OCC(=O)c2cccc([N+](=O)[O-])c2)cc1,39.8
20,COc1c(Cl)cc(Cl)cc1CNCCNCCO.Cl,-16
21,O=C(CN1C(=O)C2CCCCC2C1=O)N1CCN(c2ccc(F)cc2)CC1 (centres unmarked),-12.2
22,CSc1ccc(S(=O)(=O)NCc2ccccc2)cc1,13.1

row,SMILES,"hERG current change (%, negative = inhibition) at 10uM [%]"
1,O=C(NC(=S)N1CCN(c2ccc([N+](=O)[O-])cc2)CC1)c1ccco1,-61.2
2,CCOc1ccc(C(=O)NC(C)CCc2ccccc2)cc1 (centres unmarked),12.3
3,COc1ccc(NC(=O)CCN2CCN(Cc3ccccc3)CC2)c(OC)c1,-15.7
4,COc1ccccc1/C=C/C=N/n1c(-c2cc(-c3ccccc3)n[nH]2)n[nH]c1=S,21.2
5,O=S(=O)(c1ccc(Cl)cc1)c1nc(-c2ccccc2F)oc1NCCCN1CCOCC1,-10.4
6,CCOc1ccc(S(=O)(=O)NCc2cccnc2)c2ccccc12,-6.83
7,COc1ccc2cc(CCNC(=O)c3cccs3)c(=O)[nH]c2c1,-5.27
8,Cc1cc(C)cc(N(CC(=O)N2CCCC2)S(C)(=O)=O)c1,-10.9
9,COc1ccc(C2=CC(=O)C[C@H](c3ccc(F)cc3)C2)cc1OC,-8.74
10,O=C(NC(NC(=O)c1ccccc1)c1cccc([N+](=O)[O-])c1)c1ccccc1,1.61
11,Cc1sc(NC(=O)CSc2nnc(C(C)C)n2C)c(C#N)c1C,-1.79
12,COc1cc(O)c(C(CCN2CCN(c3ccccc3)CC2)c2ccc(N(C)C)cc2)c(OC)c1 (centres unmarked),5.52
13,C/C(=C\c1ccccc1)CN1CCN(Cc2ccc(C)o2)C(CCO)C1 (centres unmarked),-13.4
14,CC(=O)Nc1sc(NC(=O)c2ccc(Cl)cc2)nc1-c1cccs1,-3.55
15,COc1ccc(Cl)cc1C(=O)NNC(=S)NC(=O)c1cc(-c2ccccc2)nc2ccccc12,16.3
16,O=C(NCC(=O)N(c1ccccc1)C(C(=O)NC1CCCC1)c1cccnc1)c1ccco1 (centres unmarked),3.53
17,COc1ccc(-c2nc3ccccc3n2OC(C)C(=O)O)cc1 (centres unmarked),22.2
18,C=Cn1cc[n+](CC(=O)c2ccc(OC)cc2)c1.[Br-],-10.5
19,Cc1ccc(-n2c(SCC3CCCCO3)nnc2-c2ccco2)cc1 (centres unmarked),-19.9
20,O=C(c1ccco1)N1CCN(S(=O)(=O)c2ccc3c(c2)OCCO3)CC1,-0.283
21,CNC(=O)CSc1nc2ccccc2c(=O)n1-c1cc(OC)ccc1OC,-3.21
22,CCOc1ccc(C(=O)NCC(=O)N2CCC3CCCCC3C2)cc1OCC (centres unmarked),-6.14

row,SMILES,"hERG current change (%, negative = inhibition) at 10uM [%]"
1,CN(C)C(=O)c1cc(C(=O)c2ccccc2)c[nH]1,3.99
2,CCN(Cc1ccncc1)C(=O)c1ccccc1NS(=O)(=O)c1ccc(F)cc1,1.78
3,Cc1ccc2nc3c(cc(C(N)=S)c(=N)n3CCCOC(C)C)c(=O)n2c1,-74.4
4,Nc1ccccc1SCc1csc(-c2ccc(Cl)cc2)n1,13.5
5,Cc1nc2ccc(NC(=O)c3cncc(Br)c3)cc2s1,-6.23
6,O=C(c1cc2nc(-c3ccco3)cc(C(F)(F)F)n2n1)N1CCc2ccccc2C1,-11.2
7,Cn1cc([C@@H]2C[C@H]3CN(Cc4cccc(Cl)c4)C(=O)[C@]34CCCN24)c2ccccc21,-72.7
8,CCOC(=O)c1sc(N)c(C(=O)OCC)c1C,9.73
9,Cc1csc(NC(=O)CSc2ccc(-c3ccc(F)cc3)nn2)n1,-26.8
10,CCn1c(Cc2ccc(OC)cc2)nnc1SCC(=O)NC1CCCCC1,15.3
11,CCCOC(=O)c1ccc(-c2ccc(C=O)o2)cc1,-7.75
12,CCC(CC)NC(=O)C1CCN(c2ccc(S(=O)(=O)N3CCOCC3)cc2[N+](=O)[O-])CC1,-2.79
13,CN1C2CCC1CC(NC(=O)c1ccc(Cl)cc1)C2 (centres unmarked),7.55
14,COC(=O)C(NC(C)=O)(Nc1ccc(Br)cn1)C(F)(F)F (centres unmarked),3.47
15,Cc1ccc(N(C)C(=O)N2CCN(S(=O)(=O)c3ccc4ccccc4c3)CC2)cc1,-4.15
16,Cc1nc2sc(C(c3cccs3)N3CC(C)CC(C)C3)c(O)n2n1 (centres unmarked),-10.5
17,O=C(COc1ccc(Br)cc1)NC1CC1,5.78
18,CC(C)n1c(NCc2ccc(N(C)C)cc2)nc2ccccc21,-25.1
19,CN(C)C1(CNC(=O)Cc2ccccc2F)CCCCC1,13.2
20,Cc1c(CN2CCCC(C(=O)c3cccc(OC(C)C)c3)C2)c(=O)n(-c2ccccc2)n1C (centres unmarked),-57.2
